Assay [1] addresses T1, T. thermophilus complex II (Thermus thermophilus, UniProt Q5SIB8+Q5SIB9+Q5SIC0+Q5SIC1). Conditions: in words.
In assay [2] the target is recombinant complex II from T. thermophilus HB8 with a His8 tag on the N-terminus of the SdhB subunit (Thermus thermophilus HB8). As to the kind of experiment: native gel or EMSA; Blue Native PAGE of the purified complex II as described in ref. 14; markers beta-amylase (200 kDa), apoferritin monomer (443 kDa) and dimer (886 kDa); trimer of protomers.
The target in assay [3] is wild type, non-tagged recombinant complex II from T. thermophilus HB8 (Thermus thermophilus HB8). The description is as above.
Assay [4] relates to native complex II expression in T. thermophilus. As to the kind of experiment: expression of native complex II in the rcII-His8-SdhB production strain. The conditions noted are these: concentration up to 50 mM. The assay is classed as cell-based. From the text: On SDS-PAGE all four subunits of the rcII-His8-SdhB complex were detected, with a doublet for the band corresponding to SdhB (Fig. 1A, lane 4). While the upper band of this doublet represents the His-tagged SdhB subunit (Fig. 1B), the lower band migrates identically to the SdhB subunits of the native and wt-rcII complex II and therefore most likely corresponds to a native, non-tagged SdhB subunit. […] Therefore, due to the trimeric nature of the protein, the formation of the complexes containing mixed, His-tagged and untagged SdhB species is not surprising. As expected, due to enhanced expression of the His-tagged complex and the affinity method of purification, the His8-SdhB comprises a significant majority of the observed species in SdhB hybrid. […] Although complex II deletion strains of E. coli and B. subtilis exist, despite our best efforts, the trials to generate sdhCDAB deletion strain of T. thermophilus have been unsuccessful so far. The ability to generate the monomeric version of the enzyme, subsequent tag cleavage and in vitro trimerization of the complex II may seem to be a solution to overcome the problem of mosaic SdhB composition and for future generation of mutants. […]

In assay [5] the target is T1, T. thermophilus complex II. As to the kind of experiment: DCPIP/1,4-NQ activity assay, statements across enzyme forms. Conditions: compared with DCPIP as the only electron acceptor, all forms of the protein. Type of assay: biochemical. The text has this: (§1) Kinetic experiments with NQNO support this interpretation.
The target of assay [6] is native complex II (succinate:quinone reductase) from Thermus thermophilus (Thermus thermophilus). In words: native gel or EMSA; Blue Native PAGE of the purified complex II as described in ref. 14; markers beta-amylase (200 kDa), apoferritin monomer (443 kDa) and dimer (886 kDa); trimer of protomers. In general terms: A gel shift assay detects complexes by their altered migration in electrophoresis.

Assay [7] concerns the target T1, T. thermophilus complex II. As to the kind of experiment: DCPIP-only activity assay, statements across enzyme forms. Type of assay: biochemical. The conditions noted are these: lag time proportional to p-BQ concentration.
From the text: as §1

Regarding `CCCCCCCCCc1cc(O)c2ccccc2[n+]1[O-]` [NQNO], the “effect on the DCPIP/PMS activity” value in assay [1] is “negligible effect”.
For “recombinant complex II from T. thermophilus HB8 with a His8 tag on the N-terminus of the SdhB subunit”, the stoichiometry N (commonly a count of units in the complex or per binding partner) in assay [2] is 3.
Consider “wild type, non-tagged recombinant complex II from T. thermophilus HB8”, for which, in assay [3], the stoichiometry N stood at 3.
In the case of `O=C(O)/C=C/C(=O)O` [fumarate], the “effect on expression of the native complex II” value in assay [4] is reported as “did not inhibit the expression of the native complex II”.
For `O=C1C=CC(=O)c2ccccc21` [1,4-NQ, 1,4-naphthoquinone], in assay [5], the “effect as direct electron acceptor on succinate dehydrogenase activity” value is “increased the succinate dehydrogenase activity by a factor of two”.
For the compound “native complex II (succinate:quinone reductase) from Thermus thermophilus”, the stoichiometry N in assay [6] turned out to be 3.
For `O=C1C=CC(=O)C=C1` [p-BQ, p-benzoquinone], the “effect in the DCPIP assay” value in assay [7] was “induced a lag in the reduction of DCPIP”.
